From the supplement of paper PMC6206098
± gives the uncertainty stated by the source. Shown are siRNA guide strands that differ only in the seed, positions 2 to 7.

Tests used:
M565 = test: cell viability relative to lipid-only control; higher = less toxic; conditions: concentration: 10 nM; 96 h; Mus musculus
Experimental: (§1)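 Arrayed screen of 4096 siRNA duplexes, each carrying one of all possible 6mer seeds at guide-strand positions 2-7 in a fixed neutral 19mer scaffold (constant flanks: U at position 1, then ACAUGUAAACCA, plus a 3' AA overhang). The passenger strand is 2'-O-methylated at positions 1-2 so only the guide strand loads into RISC. Duplexes were reverse-transfected at 10 nM with RNAiMAX in triplicate in 384-well plates; viability was read by CellTiter-Glo ATP content 96 h after transfection. Values are % viability normalised to lipid-only wells (HeyA8, H460, M565) or to siNT1 (3LL).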

H460 = test: as above; conditions: concentration: 10 nM; 96 h; Homo sapiens
Experimental: as §1

HeyA8 = test: as above; conditions: concentration: 10 nM; 96 h; Homo sapiens
Experimental: as §1

3LL = test: cell viability relative to siNT1 control; HeyA8 human ovarian and H460 human lung cancer; M565 mouse liver and 3LL mouse lung cancer; siNT1 is a non-toxic control siRNA; higher = less toxic; conditions: concentration: 10 nM; 96 h; Mus musculus
Experimental: as §1
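Wherever cell viability relative to lipid-only control is given: reverse lipid transfection in 384-well plates, in triplicate, of duplexes on a non-toxic 19mer backbone with passenger strand 2′-O-methylated at positions 1 and 2, luminescence viability read-out.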
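Wherever cell viability relative to siNT1 control is given: Luminescence-based viability of cells reverse transfected in 384-well plates with lipid-complexed siRNAs built on a non-toxic 19mer backbone whose passenger strand carries 2′-O-methyl groups at positions 1 and 2, triplicates.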

Sequence	cell viability (M565)	cell viability (H460)	cell viability (HeyA8)	cell viability (3LL)
UACUGCAACAUGUAAACCAAA	61.3 ± 3%	73.7 ± 8.1%	77.9 ± 2.5%	93.3 ± 10%
UACUGCCACAUGUAAACCAAA	5.01 ± 1.9%	51.5 ± 3.7%	25.6 ± 4.3%	10.3 ± 1.7%
UACUGCGACAUGUAAACCAAA	68.8 ± 5.5%	102 ± 10%	87.2 ± 7.2%	92.7 ± 13%
UACUGCUACAUGUAAACCAAA	28.4 ± 6.2%	54.7 ± 5.8%	26.5 ± 3.7%	41.9 ± 5.5%
UACUGGAACAUGUAAACCAAA	30.4 ± 1.2%	81 ± 0.89%	12.8 ± 0.013%	55.9 ± 13%
UACUGGCACAUGUAAACCAAA	7.59 ± 1.9%	16.5 ± 0.71%	21.8 ± 1.9%	8.11 ± 0.84%
UACUGGGACAUGUAAACCAAA	34.7 ± 2%	68.8 ± 5%	5.01 ± 0.49%	55.5 ± 5.7%
UACUGGUACAUGUAAACCAAA	36.5 ± 6.7%	72.4 ± 8.2%	41.01 ± 0.32%	53.6 ± 4.1%
UACUGUAACAUGUAAACCAAA	46 ± 11%	71.9 ± 18%	100 ± 4.5%	87.4 ± 16%
UACUGUCACAUGUAAACCAAA	57.7 ± 14%	71.8 ± 26%	78.1 ± 9.7%	74.3 ± 5.2%
UACUGUGACAUGUAAACCAAA	42.2 ± 8.8%	89 ± 9.2%	78.4 ± 9.3%	84.2 ± 9.4%
UACUGUUACAUGUAAACCAAA	25.1 ± 5.3%	74.8 ± 9.1%	80.8 ± 10%	49 ± 1.6%
UACUUAAACAUGUAAACCAAA	81.9 ± 4.2%	70.2 ± 11%	79 ± 4%	86 ± 6.9%
UACUUACACAUGUAAACCAAA	41.8 ± 7.9%	57.1 ± 4.7%	29.7 ± 4%	66.8 ± 3.7%
UACUUAGACAUGUAAACCAAA	53.1 ± 14%	74.1 ± 16%	81.2 ± 5.7%	99.9 ± 6.8%
UACUUAUACAUGUAAACCAAA	28.2 ± 1.4%	55.5 ± 3.8%	42.2 ± 2.4%	76.9 ± 6.6%
UACUUCAACAUGUAAACCAAA	90 ± 4%	78.8 ± 5.9%	74.8 ± 7.7%	100 ± 9.7%
UACUUCCACAUGUAAACCAAA	30.4 ± 2%	63.2 ± 0.36%	34.5 ± 2.4%	24.1 ± 3.1%
UACUUCGACAUGUAAACCAAA	70.7 ± 2.9%	85.2 ± 12%	72 ± 5.1%	92.5 ± 8.8%

Sequence	cell viability (M565)	cell viability (H460)	cell viability (HeyA8)	cell viability (3LL)
UACUUCUACAUGUAAACCAAA	56.8 ± 11%	61.1 ± 2.8%	38 ± 4.1%	66.6 ± 7.8%
UACUUGAACAUGUAAACCAAA	45.4 ± 5.7%	65.9 ± 2.5%	66.5 ± 3.3%	66.2 ± 6%
UACUUGCACAUGUAAACCAAA	11.5 ± 4.3%	40.4 ± 0.57%	27.3 ± 3%	11.1 ± 3%
UACUUGGACAUGUAAACCAAA	37.9 ± 5.8%	52.2 ± 2%	8.53 ± 1%	21.7 ± 5.7%
UACUUGUACAUGUAAACCAAA	39 ± 9.6%	55.5 ± 11%	44.4 ± 4.5%	4.6 ± 0.76%
UACUUUAACAUGUAAACCAAA	84.1 ± 1.7%	84.5 ± 20%	73 ± 3.8%	99.8 ± 12%
UACUUUCACAUGUAAACCAAA	81.4 ± 14%	55.2 ± 1.9%	48.3 ± 8.3%	72.5 ± 20%
UACUUUGACAUGUAAACCAAA	100 ± 5.4%	62.7 ± 5.2%	73.1 ± 7.5%	90.3 ± 10%
UACUUUUACAUGUAAACCAAA	109 ± 13%	79.3 ± 12%	61 ± 1.9%	87.4 ± 4.1%
UAGAAAAACAUGUAAACCAAA	74.8 ± 6.5%	68.6 ± 6.1%	84.6 ± 3.7%	83.8 ± 12%
UAGAAACACAUGUAAACCAAA	68 ± 9.6%	63.1 ± 4.9%	65.7 ± 3.5%	53.2 ± 5.5%
UAGAAAGACAUGUAAACCAAA	72.9 ± 14%	80.8 ± 16%	84.2 ± 8.4%	91.4 ± 8.8%
UAGAAAUACAUGUAAACCAAA	62.3 ± 1%	62.5 ± 12%	56.6 ± 2.6%	77.1 ± 3.8%
UAGAACAACAUGUAAACCAAA	78.8 ± 5.3%	88.1 ± 12%	89.8 ± 6%	81.5 ± 1.9%
UAGAACCACAUGUAAACCAAA	42.8 ± 6.3%	58.8 ± 5.8%	82.1 ± 5.8%	17.6 ± 3.2%
UAGAACGACAUGUAAACCAAA	75.7 ± 8.2%	68 ± 7.8%	86.5 ± 9.2%	86.6 ± 9.4%
UAGAACUACAUGUAAACCAAA	79.6 ± 12%	64.6 ± 16%	25.1 ± 2.5%	66.6 ± 8%
UAGAAGAACAUGUAAACCAAA	65.9 ± 5.8%	96.3 ± 24%	89 ± 6.9%	83.5 ± 5.4%
UAGAAGCACAUGUAAACCAAA	18.9 ± 2.8%	47.5 ± 4%	41.9 ± 1.1%	9.75 ± 4.1%

Sequence	cell viability (M565)	cell viability (H460)	cell viability (HeyA8)	cell viability (3LL)
UAGAAGGACAUGUAAACCAAA	94.4 ± 14%	59.2 ± 3.4%	44.6 ± 3.6%	90.7 ± 7.9%
UAGAAGUACAUGUAAACCAAA	59.2 ± 4.5%	46 ± 7.4%	40.8 ± 3.4%	71.3 ± 5.2%
UAGAAUAACAUGUAAACCAAA	76.3 ± 2.7%	66.6 ± 1%	87.7 ± 8.7%	87.1 ± 11%
UAGAAUCACAUGUAAACCAAA	42.9 ± 1.7%	76.8 ± 9.1%	55.5 ± 4.8%	69 ± 6.6%
UAGAAUGACAUGUAAACCAAA	64.3 ± 4.7%	94.6 ± 9.2%	89.1 ± 12%	82.7 ± 8.2%
UAGAAUUACAUGUAAACCAAA	78.8 ± 6.1%	61.7 ± 0.93%	65.2 ± 2.9%	78.6 ± 17%
UAGACAAACAUGUAAACCAAA	56.4 ± 5.2%	99.7 ± 21%	105 ± 12%	80.7 ± 2%
UAGACACACAUGUAAACCAAA	27.2 ± 5.1%	60.3 ± 9.1%	67.6 ± 1.2%	75.5 ± 8.2%
UAGACAGACAUGUAAACCAAA	31.4 ± 7.5%	83 ± 10%	79.5 ± 3.5%	61.2 ± 5.7%
UAGACAUACAUGUAAACCAAA	35.7 ± 4.8%	83 ± 9%	93.8 ± 13%	74 ± 3.5%
UAGACCAACAUGUAAACCAAA	59.8 ± 5.7%	97.8 ± 18%	88.7 ± 7.2%	78.4 ± 2.9%
UAGACCCACAUGUAAACCAAA	31.3 ± 1.8%	50.9 ± 3%	55 ± 4.8%	33.3 ± 1.4%
UAGACCGACAUGUAAACCAAA	43.6 ± 4.1%	75.3 ± 15%	78.6 ± 2%	73.8 ± 6.1%
UAGACCUACAUGUAAACCAAA	48.5 ± 1.9%	85 ± 26%	59.2 ± 3.8%	53.3 ± 1.4%
UAGACGAACAUGUAAACCAAA	61.7 ± 2.5%	76.8 ± 13%	94.6 ± 9.7%	84.3 ± 9.3%
UAGACGCACAUGUAAACCAAA	20.2 ± 1%	50.8 ± 5.3%	52.1 ± 2.8%	13.9 ± 5.2%
UAGACGGACAUGUAAACCAAA	78.8 ± 5.9%	51.9 ± 7.6%	75.1 ± 8.6%	81.1 ± 15%
UAGACGUACAUGUAAACCAAA	42.2 ± 2.7%	75 ± 23%	82.8 ± 3.9%	20.2 ± 3.6%
UAGACUAACAUGUAAACCAAA	72.3 ± 1.6%	76.3 ± 7.9%	95.2 ± 4.5%	92.8 ± 2.4%
